Measurements published in PubChem BioAssay AID1645887 (National Center for Advancing Translational Sciences (NCATS), 2021).
Where “and” joins values, the source holds several entries; their conditions need not be identical. Equal values may be shown once. The campaign covered roughly 16,000 compounds. About 40 (0.2%) were called active. About 1% were inconclusive and are not listed. Calls follow the shape of the dose curve; as a rule, active = well fitted activation curve with a large enough effect; inconclusive = small, poorly fitted or top-dose-only effect, or another doubt; inactive = no such curve, though single readings can be large or run the other way. This is one part of the list.

What follows are compounds tested against Rap guanine nucleotide exchange factor 4 (Homo sapiens) (UniProt Q8WZA2) (assay: Validation qHTS for agonist of cAMP-regulated guanine nucleotide exchange factor 4 (EPAC2)). Details: EPAC2 Rap1B BODIPY-GDP exchange, fluorescence; activation: stronger effect = higher value.
How it was run: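 Signal normalized against 6.5 mM cAMP as agonist control. Mix of EPAC2 (100 nM), RAP1B-BODIPY-GDP (250 nM) and GDP (50 uM) was read kinetically at 480/540 nm, every 5 min over 30 min, after 5 min room-temperature incubation with compound.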
% is scaled to controls: 0 for no effect and ±100 for the full control effect.
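Also: exchange makes BODIPY-GDP fluorescence drop when released from Rap1B; series mostly up to about 150 µM.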

Sequence of UniProt Q8WZA2 (Q8WZA2 whole entry, looked up): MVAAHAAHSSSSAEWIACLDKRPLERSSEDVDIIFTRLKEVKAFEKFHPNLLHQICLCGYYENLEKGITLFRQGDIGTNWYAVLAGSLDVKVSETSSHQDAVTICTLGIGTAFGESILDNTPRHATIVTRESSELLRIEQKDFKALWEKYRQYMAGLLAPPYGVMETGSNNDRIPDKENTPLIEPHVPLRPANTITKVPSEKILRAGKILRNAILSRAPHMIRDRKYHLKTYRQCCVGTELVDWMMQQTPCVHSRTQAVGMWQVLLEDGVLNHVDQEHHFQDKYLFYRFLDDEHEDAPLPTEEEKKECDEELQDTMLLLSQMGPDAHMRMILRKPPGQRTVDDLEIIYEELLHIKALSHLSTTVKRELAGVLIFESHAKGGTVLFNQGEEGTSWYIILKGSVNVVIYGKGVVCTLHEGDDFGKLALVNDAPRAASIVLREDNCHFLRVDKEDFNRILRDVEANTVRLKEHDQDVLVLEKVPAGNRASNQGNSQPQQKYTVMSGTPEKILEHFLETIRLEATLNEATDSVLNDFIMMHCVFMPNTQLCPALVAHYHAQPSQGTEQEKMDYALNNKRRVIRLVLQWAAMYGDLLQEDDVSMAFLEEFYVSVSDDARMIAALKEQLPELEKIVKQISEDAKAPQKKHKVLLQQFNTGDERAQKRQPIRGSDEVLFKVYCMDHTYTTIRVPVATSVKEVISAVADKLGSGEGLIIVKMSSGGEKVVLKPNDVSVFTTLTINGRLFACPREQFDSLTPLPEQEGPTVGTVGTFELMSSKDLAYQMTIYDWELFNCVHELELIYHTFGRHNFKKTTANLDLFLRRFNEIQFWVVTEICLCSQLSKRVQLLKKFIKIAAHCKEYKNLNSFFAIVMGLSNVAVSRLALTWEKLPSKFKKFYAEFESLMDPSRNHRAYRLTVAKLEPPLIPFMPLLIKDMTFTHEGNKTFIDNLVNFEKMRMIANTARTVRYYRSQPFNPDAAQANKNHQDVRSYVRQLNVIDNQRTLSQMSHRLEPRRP

activation, inactive:
Nc1nc2[nH]c(=O)[nH]c2c(=O)[nH]1 -4.92%
Cc1ncc([N+](=O)[O-])n1CC(C)O (configuration not stated) -15.7%
Cc1c(C(=O)NCCc2cccnc2)cnn1-c1nccc(-c2ccccc2F)n1 -9.69%
CC(=O)C[C@H]1c2ccccc2S(=O)(=O)N1C1CCCCC1 -22.2%
COC(=O)c1ccccc1C(=O)NCc1nc(N2CCCC2)c2cccc(C)c2n1 -28.7%
CC1=C(/C=C/C(C)=C/C=C/C(C)=C/CO)C(C)(C)CCC1 -20% [middle of 4 runs]
Cc1noc(C)c1C(=O)N1CCC2(CCN(Cc3cc(C(F)(F)F)cc(C(F)(F)F)c3)CC2)CC1 -21.8%
COc1ccccc1N1CCN(CCN(C(=O)c2ccc(I)cc2)c2ccccn2)CC1 -8.14%
COc1ccccc1CCc1nc2ccccc2n1C1CCN(C(=O)c2cc(C)nn2C)CC1 -6.12%
NCCC(=O)N[C@H](Cc1cnc[nH]1)C(=O)O -6.08%
NC(Cc1cc(I)c(Oc2ccc(O)c(I)c2)c(I)c1)C(=O)O (configuration not stated) -13.8%
C=C(C)C1COc2cc3oc(=O)ccc3cc2O1 (configuration not stated) -2.86%
C[C@@H]1CCC(=O)N(CC[C@H](N=[N+]=[N-])c2ccccc2)CC1 -22.2%
Cc1nn(C)cc1CN1CCOc2ccc(CN3CCC(Oc4cccnc4)CC3)cc2C1 -0.756%
COc1cccc(-c2cncnc2NC2CCNCC2)c1 -14%
CCCCCc1ccc(-c2cn(Cc3ccc(C(=O)c4ccccc4)cc3)nn2)cc1 -2.48%
O=C1CCN(Cc2cccc(C(F)(F)F)c2)CCN1Cc1ccccn1 -12.3%
Cc1c(C(=O)NCC(C)(C)N2CCOCC2)cnn1-c1nccc(-c2cccs2)n1 -10.6%
[O-][N+](=Nc1ccccc1)c1ccccc1 13.2%
O=C(C[n+]1cccc2ccccc21)c1ccc(F)cc1 2.35%
COc1ccc([C@@H](C)C(=O)c2ccc(O)cc2O)cc1 -21.2%
Cc1cnnc2ccccc12 -11.4%
CO[C@H]1[C@H](NC(=O)c2ccco2)c2ccccc2C12CCN(Cc1cnc(N(C)C)s1)CC2 -21.4%
COc1ccc2c(c1)OCC(Cc1ccc(OC)c(OC)c1)C2O (configuration not stated) -15.4% and -5.66%
CCCCCCCC(=O)OCC(O)CO (configuration not stated) -27.5%
c1ccc(-c2nc[nH]c2-c2ccccc2)cc1 -13.2%
O=C(Nc1cccc(F)c1)N1CCC2(CC1)CCN(C(=O)c1cnccn1)CC2 6.12%
COc1ccccc1CN1CC[C@@]2(CCCN(C(=O)c3c(C)noc3C)C2)C1 -0.842%
C[N+]1(C)C2CC(OC(=O)C(CO)c3ccccc3)CC1C1OC12 (configuration not stated) -12.5%
CC(=O)Nc1ccc(C(=O)N2CCCC(c3nc(SCc4ccccn4)ncc3C)C2)cc1 (configuration not stated) -4.23%
CC(=O)N1CCC2(CC1)CN(C(c1ccccc1)c1ccccc1)C2 -7.21%
CC1(C)S[C@@H]2[C@H](NC(=O)[C@H](N)c3ccccc3)C(=O)N2[C@H]1C(=O)O -3.65%
c1csc(CNc2nc(-c3ccc4c(c3)OCO4)nc3ccccc23)c1 5.19%
O=C(c1cc(-c2ccccc2)on1)N1CCOc2ccc(CN3CCN(c4ccccn4)CC3)cc2C1 -0.107%
COc1cccc(Cn2c(=O)c(C)nc3cnc(Nc4cccc(OC)c4)nc32)c1 0.94%
CCCCC/C=C\C=C\[C@H](O)CCCCCCCC(=O)O -6.69%
CN1C[C@H](C(=O)N[C@]2(C)O[C@@]3(O)C4CCCN4C(=O)[C@H](Cc4ccccc4)N3C2=O)C[C@@H]2c3cccc4[nH]cc(c34)C[C@H]21 (some centres not stated) 2.9%
O[C@@H](CNC[C@H](O)[C@H]1CCc2cc(F)ccc2O1)[C@@H]1CCc2cc(F)ccc2O1 -18.9%
CCCCCC(=O)/C=C/C=C\CCCCCCCC(=O)O 1.31%
Oc1ccc(Cl)cc1Sc1cc(Cl)ccc1O -11.5%
O=c1n(CCCN2CCN(c3cccc(Cl)c3)CC2)nc2ccccn12 -6.91% and 4.36% and -21.7%
COC(=O)C[C@H]1c2cc(C(F)(F)F)ccc2S(=O)(=O)N1C1CCCC1 -23.3%
CC(=O)NCCCCCC(=O)O 13.4%
O=C(O)c1cc(=O)[nH]c(=O)[nH]1 -4.18%
O=c1c(-c2ccc(Cl)cc2)nc2cnc(Nc3ccccc3)nc2n1C1CC1 -7.24%
CN(Cc1ccco1)c1ncncc1-c1ccoc1 10.8%
CCC(=O)c1ccc2c(c1)N(CCCN(C)C)c1ccccc1S2 -9.81% and -16.9%
Cc1ccccc1N1CCN(CCc2nnc3n2CCCC3)CC1 -18.4%
Cc1noc(C)c1-c1cc(N(C)C)ncn1 -7.83%
Cc1nc2ccccn2c(=O)c1CCN1CCC(C(=O)c2ccc(F)cc2)CC1 -19.1% and -25.1%
CC1(C)C2(Cl)C(Cl)C(Cl)C(Cl)(C(Cl)Cl)C1(Cl)C2Cl (configuration not stated) -16.6%
Cc1cnc(CNc2ncncc2-c2ccc(N(C)C)cc2)cn1 8.05%
O=C(Nc1ccc(Cl)cc1Cl)[C@@H]1CC=C[C@@H]2CCN(C3CCCCC3)C(=O)[C@@H]21 -19.9%
Cc1cccc(C)c1NC(=O)c1cc(S(N)(=O)=O)c(Cl)cc1O 1.01%
COCC(=O)Nc1cc(C(=O)N2CC3CC4CC(C3)CC2C4)c2c(c1)nc(-c1ccncc1)n2C 2.55%
CCNc1ncc2nc(-c3ccc(OC)cc3)c(=O)n(Cc3ccc(F)cc3)c2n1 6.11%
CC(=O)N[C@@H](CSC/C=C(\C)CC/C=C(\C)CC/C=C(\C)CCC=C(C)C)C(=O)O -69.2% and -10.9%
